Measurements: PubChem BioAssay AID686979 (National Center for Advancing Translational Sciences (NCATS), 2013)
The campaign covered roughly 420,000 compounds. About 50,000 (12%) were called active. Inconclusive means that the source gave no clear call. Such entries were picked first, then a sample of the others. The call rests on the fitted dose curve; in most records, active means well fitted inhibition curve with a large enough effect; inconclusive means small, poorly fitted or top-dose-only effect; inactive means flat fitted curve, though single readings scatter. No potency is given beside an inconclusive call; the fits are too rough.

assay: qHTS for Inhibitors of human tyrosyl-DNA phosphodiesterase 1 (TDP1): qHTS in cells in presence of CPT; settings: chicken DT40 Tdp1-/-;hTDP1 cells + 20 nM CPT, ATP luminescence, 48 h; activity change, negative = growth inhibition: at 46.2 µM (top of the series) unless noted; further: nearly all actives have a fitted effect of over 55% in size
Method in brief: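 Cell growth measured by CellTiter-Glo luminescence after a minimum 48 h, 37 C compound exposure with 20 nM CPT in Tdp1-knockout DT40 cells stably expressing hTDP1, seeded 400/well; qHTS titration format.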
On the % scale 0 is the no-effect control and ±100 the full control effect; potency means the concentration at half of the fitted maximal effect; tags describe the fitted curve by direction and shape.

Row | Compound | Potency | activity change, negative = growth inhibition
1 | CCC(=O)NC(=S)Nc1ccc(S(=O)(=O)NC2CCCCC2)cc1 | inconclusive [inhibitor, partial curve] | 
2 | C/C(=N\NC(=O)c1nnn(-c2nonc2N)c1-c1ccc2c(c1)OCO2)c1cccs1 | active: 1.64 µM | 
3 | O=C(NCc1cccs1)C(=O)NCC(c1ccco1)N1CCN(c2ccccc2)CC1 (centres undefined) | inconclusive [inhibitor, single point] | 
4 | O=c1cc(CN2CCN(c3cccc(Cl)c3)CC2)c2cc3c(cc2o1)CCCC3 | inactive | 
5 | O=C(COc1ccccc1Cl)Nc1ccc(CN2CCOCC2)cc1 | inconclusive [inhibitor, single point] | 
6 | CC(Oc1cccc(Br)c1)C(=O)Nc1cccc(S(=O)(=O)N2CCOCC2)c1 (centres undefined) | inconclusive [inhibitor, single point] | 
7 | Cc1ccc(C)c(NC(=O)CCc2nnc3ccc(NCc4ccco4)nn23)c1 | inactive | 
8 | NC(=NCc1ccccc1)NC(=O)c1nc(Cl)c(N)nc1N | active: 10.3 µM | 
9 | O=C(Nc1nnc(SCC(=O)N2CCCCC2)s1)C1CCCCC1 | inconclusive [inhibitor, single point] | 
10 | COc1ccc(C(=O)Nc2ccc(C3=NNC(=O)CC3C)cc2NC(=O)c2ccc(OC)cc2)cc1 (centres undefined) | inconclusive [inhibitor, single point] | 
11 | Cc1ccc(-n2nc3c(=O)n(CC(=O)NCCc4ccco4)nc(C)c3c2C)cc1 | inconclusive [inhibitor, single point] | 
12 | O=C(/C=C/c1ccccc1[N+](=O)[O-])N1CCN(c2ccc(F)cc2)CC1 | inactive | 
13 | CCOC(=O)Nc1ccc2c(c1)nc(CN1CCN(C(C)=O)CC1)n2C | inactive | 
14 | O=C(Nc1ncc(Cc2ccc(Cl)cc2)s1)c1ccc2c(c1)CC(c1ccccc1)OC2=O (centres undefined) | active: 4.61 µM | 
15 | Cc1ccn2cc(-c3ccc(O)c(O)c3)nc2c1 | active: 16.4 µM | 
16 | Cn1c(=O)[nH]c(=O)c2c1nc(N1CCCCCC1)n2CCCSc1nc2ccccc2o1 | inconclusive [inhibitor, single point] | 
17 | CCCCNC(=O)O[C@@H]1C[C@H]2CCCC(=O)N3CC[C@@H](C1)[C@@H]23 | inactive | 
18 | COc1ccc(S(=O)(=O)N2CCc3ccccc32)cc1C(=O)N1CCN(C=O)CC1 | inactive | 
19 | CCC(Sc1ccc2nnc(-c3ccc(OC)c(OC)c3)n2n1)C(=O)O (centres undefined) | inactive | 
20 | Cc1nc2ccccc2n1C(=O)c1ccccc1[N+](=O)[O-] | inconclusive [inhibitor, full curve, poor fit] | 
21 | OC[C@@H]1CN(C2CCCC2)C[C@H](n2cnc3c(NC4CC4)ncnc32)O1 | inactive | 
22 | Cc1ccc(NC(=O)CCNS(=O)(=O)c2ccc3c(c2)CCN3C(=O)C2CC2)c(Cl)c1 | active: 5.17 µM | 
23 | O=C(O)C1CCCN1C1=NS(=O)(=O)c2ccccc21 (centres undefined) | inactive | 
24 | CCOC(=O)c1cn(-c2c(Cl)cccc2Cl)c2cc(Cl)c([N+](=O)[O-])cc2c1=O | inconclusive [inhibitor, single point] | 
25 | COC(=O)c1c(-c2ccc(OC)cc2)oc2ccc(-c3cc(OC)c(OC)c(OC)c3)cc12 | inconclusive [inhibitor, single point] | 

Row | Compound | Potency | activity change, negative = growth inhibition
26 | CC1(CC(=O)N/N=C/c2ccc(-c3ccc(C(=O)O)cc3)o2)OCCO1 | inactive | 
27 | CCc1nnc(NC(=O)c2cccc(C(=O)Nc3nnc(CC)s3)n2)s1 | active: 0.146 µM | 
28 | CN(C)c1ccc(-c2csc(C(C)(O)c3ccccc3)n2)cc1 (centres undefined) | active: 14.6 µM | 
29 | COc1cccc(CNC(=O)CSc2nc3ccccc3nc2Cc2ccc(C)cc2)c1OC | inactive | 
30 | Cc1cc(NC(=O)CS(=O)(=O)c2ccc(Cl)cc2)no1 | inactive | 
31 | Cc1cc(=O)[nH]c(SCC(=O)Nc2ccc(Br)cn2)n1 |  | inconclusive: -30% [inhibitor]
32 | O=C(c1cnccn1)N1CCC2(CC1)CCN(c1ncccn1)CC2 | inactive | 
33 | N#Cc1c(Cl)nsc1NN | inconclusive [inhibitor, partial curve] | 
34 | CCc1nc(N=Nc2c(O)[nH]c3ccccc23)c2c3c(sc2n1)CCC3 | active: 13 µM | 
35 | OC1CCCC1NCc1ccnc2cc(Cl)ccc12 (centres undefined) | inconclusive [inhibitor, single point] | 
36 | COc1ccc(OCC(=O)C2CC2)c(C#N)c1 | inactive | 
37 | COc1cc(CNC(C)(C)CO)cc(Br)c1OCc1ccccc1 | inconclusive [inhibitor, single point] | 
38 | O=C1CCCN1CCCNC(=S)Nc1ccc(F)cc1 | inactive | 
39 | COC(=O)c1ccc(CN(c2ccc(OC)cc2)S(=O)(=O)c2ccccc2)cc1 | inconclusive [inhibitor, partial curve] | 
40 | CCOc1ccccc1NC(=O)CSc1ncc(S(=O)(=O)c2ccc(C(C)(C)C)cc2)c(=O)[nH]1 | inactive | 
41 | Cc1cccc(CCN2C(N(C)C)=NC[C@@H]2CC(C)C)c1 | inconclusive [inhibitor, single point] | 
42 | Cc1ccc(S(=O)(=O)N2CCC(=O)N(C(COCc3cccc(C)c3)Cc3ccccc3)CC2)cc1 (centres undefined) | inconclusive [inhibitor, single point] | 
43 | CCC(=O)C1CCCN(C(=O)c2ccc(OC)c(OC3CCN(C(C)=O)CC3)c2)C1 (centres undefined) | inactive | 
44 | Cc1ccc(NC(=O)COc2coc(CN3CCN(Cc4ccccc4)CC3)cc2=O)cc1 | inconclusive [inhibitor, partial curve, poor fit] | 
45 | COc1ccc(-c2cc([C@H]3[C@H]4C=CC[C@@H](C)[C@@H]4C(=O)N3Cc3ccccc3)ccc2F)cc1 | active: 13 µM | 
46 | CCOC(=O)C1(Cc2ccccc2C)CCCN(C(=O)c2cc(CC)nn2C)C1 (centres undefined) | inconclusive [inhibitor, single point] | 
47 | CC(NC(=O)C1CCOCC1)c1nnc2n1CCN(Cc1ccc3cccnc3c1)CC2 (centres undefined) | inactive | 
48 | Cc1ccc(N(Cc2cc(=O)[nH]c3ccccc23)C(=O)CCl)c(C)c1 | active: 14.6 µM | 
49 | O=C(Nc1nncs1)C1COc2ccccc2O1 (centres undefined) | inactive | 
